Hit rate of the full screen: of about 48,000 compounds, about 120 (0.25%) were called active. Inconclusive results, whose numbers are uncertain, are shown with a selection of clear calls. The call rests on the fitted dose curve; in most records, active means well fitted activation curve with a large enough effect; inconclusive means small, poorly fitted or top-dose-only effect, or another doubt; inactive means no such curve, though single readings can be large or run the other way. Potencies of inconclusive entries are doubtful fits and often do not repeat.
Test: Primary qHTS for Identification of Small Molecule Activators of Huntingtin-Antisense Promoter Activity; further: nearly all actives have a fitted effect of over 55% in size
Settings: HEK293 HTT-AS promoter firefly luciferase reporter, 24 h; activity change, positive = activation: at 57.5 µM (top of the series), percent change from vehicle, -100% = no light unless noted
Outline: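 HEK293 luciferase promoter-reporter cells (2,500/well) plated 24 h, then compounds added at up to 57.5 uM final for 24 h at 37 °C. Firefly luminescence by Dual-Glo, normalized to vehicle (0%) and zero RLU (-100%).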
Potency means the concentration at half of the fitted maximal effect; tags describe the fitted curve by direction and shape.

Structure (SMILES) | activity change, positive = activation | Potency
CC(C)(C)OC(=O)N1CCC(c2c(C(=O)Nc3ccc4c(c3)OCO4)cnn2-c2ccccc2)CC1 | inconclusive: 15.5% [activator] | –
Cc1ccc2nc(COc3cccc(NC(=O)COc4ccc(F)cc4)c3)cc(=O)n2c1 | – | inconclusive: 2 µM [activator, full curve, poor fit]
Cc1cccc(NC(=O)/C(C#N)=C/c2ccc(C)o2)c1 | – | inconclusive: 0.398 µM [activator, partial curve, poor fit]
CCC(=O)Nc1cccc(-c2nc3cc(C)ccc3o2)c1 | – | inconclusive: 2 µM [activator, partial curve, poor fit]
COc1ccc(-c2nc(SCC(=O)NCc3ccccc3Cl)n[nH]2)cc1 | – | inactive
Cc1cccc(CSc2ncccc2C(=O)O)c1 | – | inconclusive: 28.2 µM [activator, partial curve, poor fit]
COCCNC(=O)C1=CC(c2ccc3c(c2)OCO3)=NS(=O)(=O)N1C | – | inactive
CC(C)c1ccc(CNc2n[nH]c(-c3ccco3)n2)cc1 | – | inconclusive: 1.26 µM [activator, full curve, poor fit]
CC(C)[C@H](CO)Nc1nc(Nc2ccc(C(=O)O)c(Cl)c2)c2ncn(C(C)C)c2n1 | – | inconclusive: 43.2 µM [activator, single point]
COc1ccc(OCC(=O)Nc2ccc(-c3nc4cc(C)c(C)cc4o3)cc2)cc1 | inconclusive: 31.3% [activator] | –
Cc1cc2c(cc3c(SCc4ccccc4Cl)nnc(C)n32)o1 | – | inconclusive: 4.47 µM [activator, full curve]
O=C(CSc1nccn1Cc1ccccc1)Nc1ccc2c(c1)OCCO2 | – | inconclusive: 1.78 µM [activator, full curve, poor fit]
CCN(CC)CCNC(C(=O)OCCC(C)C)c1ccccc1 (stereo not drawn) | – | inactive
CC1CCN(c2nnc(-n3cccc3CNc3cccc(F)c3)s2)CC1 | – | inactive
Cc1cc(N2CCN(C)CC2)nc2ccc(NC(=O)Nc3ccccc3Br)cc12 | – | inactive
CCCOc1ccc(-c2nc3ccccc3c(=O)o2)cc1 | – | inconclusive: 1.78 µM [activator, full curve, poor fit]
CCOC(=O)c1cccc(NC(=O)CC(c2cc(OC)c(OC)c(OC)c2)N2Cc3ccccc3C2=O)c1 (stereo not drawn) | inconclusive: -61.8% [activator] | –
Cc1cccc(NC(=O)c2oc3c(c2C)-c2[nH]ncc2CC3)c1C | – | inconclusive: 2.24 µM [activator, full curve]
Cc1cccc(N2CCN(c3ccc(NC(=O)c4ccccc4)cc3C(=O)O)CC2C)c1 (stereo not drawn) | – | inactive
O=C(NCc1ccc(F)cc1)c1ccc2c(c1)nc1n2CCCCC1 | – | inconclusive: 10 µM [activator, partial curve, poor fit]
COc1ccc(-c2cc3nc(C)c(CCC(=O)N4CCN(c5ccccc5F)CC4)c(C)n3n2)c(OC)c1 | – | inactive
Brc1ccc2c(c1)NC(c1cccnc1)=NC(c1ccccc1)=N2 | – | inconclusive: 17.8 µM [activator, partial curve, poor fit]

Structure (SMILES) | activity change, positive = activation | Potency
CCNc1ccc(-c2nc(-c3ccncc3)no2)cc1[N+](=O)[O-] | – | inconclusive: 2 µM [activator, full curve, poor fit]
COCc1nc2ccccc2n1Cc1cccc(C)c1 | – | inactive
COc1cccc(-c2cn3c(n2)sc2cc(C(=O)NCCC4=CCCCC4)ccc23)c1 | – | inconclusive: 3.16 µM [activator, full curve]
COc1cc(Br)c(C2CC(=O)Nc3cc4c(cc32)OCCO4)cc1OC (stereo not drawn) | inconclusive: -43.9% [activator] | –
CCCCC(CC)CNC(=O)CC(C)OC(=O)CCC(=O)O (stereo not drawn) | – | inconclusive: 39.8 µM [activator, single point]
CCCN(CCC)CCCNC(=O)c1sc2nc3n(c(=O)c2c1C)CCC3 | – | inactive
Cc1ccc(-n2c(-c3cccc(C)c3)nc3c(cnn3-c3ccccc3)c2=O)cc1 | inactive: 10.8% [at 11.5 µM, percent change from vehicle, -100% = no light] | –
CCOC(=O)c1cc(-c2ccc(C)cc2)nn1Cc1ccccc1 | – | inconclusive: 2.24 µM [activator, full curve]
O=C(Nc1cccc2cccnc12)c1ccc(F)cc1 | – | inconclusive: 14.1 µM [activator, partial curve]
CCCSCCCNC(=O)c1ccc2c(c1)nc1n2CCCCC1 | – | inconclusive: 28.2 µM [activator, single point]
CCCNC(=O)c1ccc2nc(CCc3ccccc3)oc2c1 | – | inconclusive: 7.94 µM [activator, partial curve, poor fit]
COc1ccc(C(=O)n2nc(-c3ccco3)nc2NCc2cccs2)cc1OC | – | inconclusive: 25.1 µM [activator, single point]
CCc1ccc(NC(=O)c2ccc3[nH]c(C)c(C)c3c2)cc1 | – | inconclusive: 17.8 µM [activator, partial curve, poor fit]
CCOC(=O)C1CCN(C(=O)Cn2c(=O)oc3cc(S(=O)(=O)N4CCC(C)CC4)ccc32)CC1 | – | inactive
CCOCCCNc1ncnc2c1cnn2-c1ccc(C)c(C)c1 | – | inconclusive: 1.58 µM [activator, partial curve, poor fit]
CCC(C(=O)Nc1c(C)cc(C)cc1C)n1c(=O)c(-c2ccccc2NC(C)=O)nc2ccccc21 (stereo not drawn) | – | inactive
COc1ccc(NC(=O)CSc2nnc(NC(=O)Nc3ccc(OC)cc3)s2)cc1 | – | inconclusive: 8.91 µM [activator, partial curve, poor fit]
CCCCN(C)C(=O)C1CCCN(c2ncnc3onc(C)c23)C1 (stereo not drawn) | – | inactive
CC(C)c1ccc(C2=CC(c3ccc(C(C)C)cc3)n3nnnc3N2)cc1 (stereo not drawn) | – | inconclusive: 2.82 µM [activator, partial curve, poor fit]
COc1ccccc1/C=C/c1nc2ccccc2n1C(C)C | – | inconclusive: 2.24 µM [activator, partial curve, poor fit]
Cc1ccc(/C=C/c2onc(C)c2S(=O)(=O)N2CCC(C(=O)N3CCC(N(C)C(C)C)CC3)CC2)cc1 | – | inactive

Source: PubChem BioAssay AID1508624 (National Center for Advancing Translational Sciences (NCATS), 2021)
